Hit rate of the full screen: of about 46,000 compounds, about 60 (0.1%) were called active. Inconclusive results (about 3%) are left out. The call rests on the fitted dose curve; in most records, active means well fitted inhibition curve with a large enough effect; inconclusive means small, poorly fitted or top-dose-only effect; inactive means no such curve, though single readings can be large or run the other way. The list shows a part of the results.
Test: Primary qHTS assay for Inhibitors of ovarian cancer metastasis using an organotypic tumor microenvironment (TME) model. Further: nearly all actives have a fitted effect of over 65% in size.
Conditions: SKOV3ip1-GFP adhesion/invasion on 3D omental model, fluorescence; series mostly up to 45.8 µM; activity change, negative = inhibition: at the top concentration
Description: PI: Ernst Lengyel MD., Ph.D. Department of Obstetrics and Gynecology, Section of Gynecologic Oncology University of Chicago Medicine, Chicago, Illinois. The tumor microenvironment (TME) is a key determinant of metastatic efficiency. We performed a quantitative high-throughput screen (qHTS) of diverse medicinal chemistry tractable scaffolds (44,420 compounds) and pharmacologically active small molecules (386 compounds) using a layered organotypic, robust assay representing the ovarian cancer metastatic TME. This 3D model contains primary human mesothelial cells, fibroblasts, and extracellular matrix, to which fluorescently labeled ovarian cancer cells are added. Initially, 100 compounds inhibiting ovarian cancer adhesion/invasion to the 3D model in a dose-dependent manner were identified. Of those, eight compounds were confirmed active in five high-grade serous ovarian cancer cell lines and were further validated in secondary in vitro and in vivo biological assays. […] Specifically, NCGC00117362 and PP-121 inhibited ovarian cancer adhesion, invasion, and proliferation, whereas milciclib inhibited ovarian cancer invasion and proliferation. […] To evaluate the clinical potential of NCGC00117362, structure - activity relationship studies were performed. […] The three compounds identified have promise as therapeutics for prevention and treatment of ovarian cancer metastasis.
PROTOCOL TABLE (as described by Inglese J, Shamu CE and Guy RK. 2007) SEQUENCE No. (e.g., 1, 2, 3, etc.); […] (e.g., Cells, Incubation, Reagent, etc.); VALUE; DESCRIPTION. 1; Cells; 4 uL; primary human omental fibroblast, black, clear bottom, low base, 1536-well Aurora assay plate. 2; Incubation; 48 hr; 37C. 3; Cells; 3 uL; 1,200 SKOV3ip1-GFP cells. 4; Compounds; 23nL; acoustic dispenser. 5; Incubation; 2 hr; room temperature. 6; Incubation; 16 hr; 37C. 7; Wash; 5 uL; 1x PBS. 8; Fixing; 5 uL; 4% paraformaldehyde (PFA). 9; Incubation; 15 min; room temperature 10; Wash, 5 uL; 1x PBS. 11; Detection; Fluorescence, excitation filter 488 nm, emission filter 509 nm. NOTES (numbers refer to Sequence numbers above) 1. For the 1,536-well format, 40 primary human omental fibroblasts and 400 mesothelial cells were seeded with 0.02 µg fibronectin and 0.02 µg collagen type I in 4 µL of growth media (2.3 mm2; Supplementary Fig. S1A). 2. Assay plates were incubated for 48 hours at 37 C. 3. After incubation, 1,200 SKOV3ip1-GFP were seeded in 3 µL of serum-free media (growth media minus FBS) on top of primary human omental cells. 4. Compounds or controls were added to each well immediately after the addition of the cancer cells. Compounds were screened in four doses (0.36-46 µmol/L), and the plates contained the positive control (Tomatine) in eight doses (0.035-75 µmol/L) and DMSO (equal volume controls) 5 - 6. The plates were incubated at room temperature for 2 hours and then at 37 degrees C for 16 hours. 7 - 10. Following incubation, the media were aspirated and each well washed with PBS (5 µL) and then fixed with 4% paraformaldehyde (PFA; 5 µL). After 15 minutes, the PFA solution was aspirated, PBS (5 µL) was added. 11. The number of GFP-labeled cells analyzed using a fluorescent cytometer TTP LabTech Acumen eX3 using 488 nm excitation filter and 509 nm emission filter. Data was normalized to the DMSO treated for negative and Tomatine treated wells for positive control. REFERENCES: Inglese J, Shamu CE and Guy RK, Reporting data from high throughput screening of small molecule libraries, Nature Chemical Biology, 2007, 3(8): 438-441. doi.org/10.1038/nchembio0807-438. Yasgar A, Shinn P, Jadhav A, Auld DS, Michael S, Zheng W, Austin CP, Inglese J and Simeonov A, Compound Management for Quantitative High-Throughput Screening. J. Assoc. Lab. Auto., 2008, 13: 79-89. doi: 10.1016/j.jala.2007.12.004.

outcome, inactive:
COc1ccc(Nc2ncc(C(=O)Nc3cc(C)ccc3OC)c3ccccc23)cc1
Cc1ccc(-n2nc(C)c3c(C)cc(=O)n(CC(=O)NCc4ccc(OC(C)C)cc4)c32)cc1
Fc1ccc(-n2ncc3c(Nc4ccc(Oc5ccccc5)cc4)ncnc32)cc1
Cc1ccc(OCC(=O)Nc2c(Cl)ccc3nsnc23)cc1C
COc1ccc(-c2noc(C(C)NC(=O)c3ccco3)n2)cc1 (stereo unspecified)
Cn1c(C(=O)NCc2ccc(Cl)cc2)cc2c(=O)n(C)c3ccccc3c21
COc1ccc(NC(=O)CCc2c(C)nc3c(-c4ccccc4)c(C)nn3c2C)cc1Cl
Cc1ccc2c(c1)c1c(c(=O)n(-c3ccccc3C)c(=O)n1Cc1ccccc1F)n2C
Cc1ccc(CNC(=O)C2CCN(c3nc4ccc(C)cc4[nH]3)CC2)cc1
COc1ccc(CNC(=O)c2ccc(Sc3ccc(Cl)cc3)c(NC(C)=O)c2)c(OC)c1
CCOC(=O)c1nnn(C(CC)C(=O)Nc2c(C)cccc2C)c1C(=O)OCC (stereo unspecified)
CCc1ccccc1NC(=O)CCCN1C(=O)COc2ccc(C)cc21
Cc1ccc(NC(=O)N2CCN(c3nnc(C)c4c(C)n(-c5ccccc5)nc34)CC2)c(Cl)c1
CCCCN(CC)c1ncnc2c1sc1nc(N3CCOCC3)c3c(c12)CCCC3
CC(C)c1ccc(Nc2cc(C(=O)NCCc3ccccc3)c3ccccc3n2)cc1
CCCCN(CC)CCCn1cnc2c([nH]c3ccc(Cl)cc32)c1=O
Cc1ccc(NC(=O)C(Cc2ccccc2)NS(=O)(=O)c2ccc3c(c2)c(=O)n(C)c(=O)n3C)cc1 (stereo unspecified)
COc1cccc(-c2cc(C(=O)NCc3ccccc3)[nH]n2)c1
Cc1ccc2c(c1)cc1c(=O)n(CC(=O)NCc3ccco3)nc(C)n12
COc1ccc(CCNC(=O)CCn2c(=O)c3ccccc3n(CC(=O)Nc3cccc(C)c3)c2=O)cc1OC
CCOc1ccc(NC(=O)NCCCN2CCN(c3ccc(OC)cc3)CC2)cc1

Activity change, negative = inhibition, inactive:
COc1ccc(F)cc1NC(=O)C1CCN(c2nc(-c3ccc(OC)c(OC)c3)no2)CC1 -12.9%
FC(F)(F)c1ccc(C2=Nc3ccccc3NC(c3cccs3)=N2)cc1 -16.8%
Cc1cccc2c1-c1sc(C(=O)NCCCN3CCN(c4cccc(Cl)c4)CC3)cc1CO2 -1.38%
Cc1ccc(NC(=O)c2ccc(=O)n(CC(=O)Nc3cc(C)cc(C)c3)n2)cc1 4.96%
Cc1ccc2nc(NCCN)c3ncc(C)n3c2c1 41.7%
CC(=O)c1cccc(Nc2c3c(nc4nc(-c5cccs5)nn24)CCCC3)c1 4.27%
CCCN1CCN(CCCNC(=O)c2cnn(-c3ccc(C)cc3)c2-n2cccc2)CC1 -0.45%
COc1cc(C(c2c(C)[nH][nH]c2=O)c2c(C)[nH][nH]c2=O)ccc1OC(=O)c1ccccc1F 0.173%
CC(=O)Nc1cccc(-c2nnc(SCC(=O)c3cc([N+](=O)[O-])ccc3Br)o2)c1 -0.835%
Cc1c(NC(=O)OC[C@@H]2COCCN2)cn2ncnc(Nc3ccc4c(cnn4Cc4cccc(F)c4)c3)c12 -15.3%
CCCC(=O)Nc1cccc(-c2nc3cc(C)c(C)cc3o2)c1C 10.1%
COC(=O)c1ccc2oc(=O)c(S(=O)(=O)c3ccc(C)cc3)cc2c1 -2.72%
CC(=O)Nc1ccc(NC(=O)CSc2nnc3c4cc(Br)ccc4n(C)c3n2)cc1 -7.77%
O=C(CCc1ccc(O)cc1)c1c(O)cc(O)cc1O[C@@H]1O[C@H](CO)[C@H](O)[C@H](O)[C@H]1O -15.5%
COc1cc(OC)c(NC(=O)c2cnc(N3CCCC3)nc2C)cc1Cl 0.796%
CCSc1ncc(Cl)c(C(=O)Nc2sc(C(C)=O)c(C)c2C(=O)OC)n1 2.19%
Cc1ccc2c(c1)c1c(c(=O)n(-c3cccc(Cl)c3)c(=O)n1C)n2C -8.42%
COc1ccc(C(=O)c2oc3ccccc3c2NC(=O)c2nc(SC)ncc2Cl)cc1Cl -4.39%
O=C1CN(C(=O)COc2ccc(Cl)cc2Cl)C(c2ccc(F)cc2)c2cc(F)ccc2N1 (stereo unspecified) 7.44%
CCOC(=O)c1c(NC(=O)c2cc3nc(-c4ccc(OC)cc4)cc(C(F)(F)F)n3n2)sc(C)c1C -6.78%
CCc1cccc(NC(=O)c2c(C)oc3ncnc(N4CCCCC4)c23)c1 15.6%
CCN(CC)C(=O)CSc1nnc2[nH]c(=O)cc(C)n12 4.07%
CC(C)c1ccc(Nc2cc(C(=O)NCc3cccs3)c3ccccc3n2)cc1 -24.3%
CCOC(=O)N1CCc2c(sc(NCc3cccs3)c2C(=O)Nc2cc(OC)ccc2OC)C1 7.61%
CCOc1ccc2nc(N3CCCC(C(=O)NCc4ccc(OC)cc4)C3)sc2c1 (stereo unspecified) -7.69%
CCNc1nc(Oc2ccc(OCC(=O)OC)nn2)nc(N2CCOCC2)n1 2.6%
CCOc1ccc(-c2cccc(NS(=O)(=O)c3ccc(Cl)s3)c2)nn1 12.3%
Cc1ccc(S(=O)(=O)c2nc(-c3ccccc3)oc2N2CCCCCC2)cc1 -2.06%
COc1ccc2cc(-c3cn4c(n3)sc3cc(F)ccc34)c(=O)oc2c1 -8.03%
Cc1cccc(OCC(=O)N(Cc2cccc(Cl)c2)Cc2ccco2)c1C -23.5%
COc1cccc(C(=O)NCC(c2ccc(N(C)C)cc2)N2CCOCC2)c1OC (stereo unspecified) 0.88%
Cc1ccccc1CSc1nc(-c2ccccc2)nc2c1Cc1c(CO)cnc(C)c1O2 8.45%
COc1ccc(/C=C/c2onc(C)c2S(=O)(=O)N2CCC(C(=O)N3CCC(C)CC3)CC2)cc1 -22.1%
CC1CCN(S(=O)(=O)c2ccc3c(c2)N(CC(=O)N2CCN(c4ccc(Cl)cc4)CC2)C(=O)CO3)CC1 31.7%
CCOc1ccc(CCNC(=O)CCc2cn(Cc3ccc(C)cc3)c3ccccc23)cc1 2.48%
COc1cccc(C2=NN(C(C)=O)C(c3cn(-c4ccccc4)nc3-c3cccs3)C2)c1 (stereo unspecified) -5.21%
CCCCNC(=O)CCn1c(=O)c2ccccc2n(Cc2cc(C)ccc2C)c1=O -2.46%
CCOC(=O)c1c(S(=O)(=O)N2CCCC(C(=O)Nc3cc(C)ccc3OC)C2)c(C)n(C)c1C (stereo unspecified) -0.581%
CC(C)CCNC(=O)N1CCN(S(=O)(=O)c2ccc3c(ccn3C)c2)CC1 -3.93%
CCCC(=O)Nc1nnc(SCc2cc(=O)c3cc(C)ccc3[nH]2)s1 -6.14%
O=C(c1ccc(CSc2nc3ccncc3n2Cc2ccccc2F)cc1)N1CCCCCC1 7.19%
COc1ccc2[nH]cc(CCNC(=O)Nc3ccc(F)cc3)c2c1 4.52%
Cc1ccc(C)c(N2CCN(C(=O)c3cc(S(=O)(=O)N4CCCCC4)cn3C)CC2)c1 -23.1%
CC(C[N+](C)(C)C)OC(N)=O (stereo unspecified) 1.76%
Cc1ccc(C)c(S(=O)(=O)c2nnn3c2nc(N2CCCC2)c2sccc23)c1 -1.84%
CCc1ccccc1N1CC(c2nc3ccccc3n2CC(C)C)CC1=O (stereo unspecified) 7.84%
COc1ccc(Nc2oc(-c3ccc(COc4ccc(OC)cc4)o3)nc2C#N)cc1 -3.72%
O=C(Cn1ncc2c3ccccc3n(Cc3ccc(Cl)cc3)c2c1=O)NCCCc1ccccc1 -11.9%
Cc1oc(-c2ccc(C(=O)Nc3ccc(F)cc3F)cc2)nc1COc1ccccc1 5.08%
CC(=O)Nc1ccc(-n2cc3c(c2-c2ccc(C)cc2)c(=O)n(C)c(=O)n3C)cc1 -5.41%
CC(C)(C)C1CCc2nc(NC(=O)COc3ccc(F)cc3)sc2C1 (stereo unspecified) 1.27%
CCC(=O)Nc1ccccc1-c1nc2ccccc2n(C(CC)C(=O)Nc2cccc(C(C)=O)c2)c1=O (stereo unspecified) 13.5%
CCOc1nc(NC(=O)NS(=O)(=O)Oc2ccc(Cl)cc2)nc(-c2ccccc2)n1 -10.6%
CCCC(=O)Oc1c(Sc2ccc(Cl)cc2)c(C)nn1-c1ccccc1 0.851%
CCOc1ccc(C(C)C)cc1S(=O)(=O)Nc1cccc(-c2ccc(N3CCOCC3)nn2)c1 5.16%
CCN(C(=O)c1cc(S(=O)(=O)N2CCOCC2)cn1C)c1ccc(OC)cc1 3.9%
Cc1ccc(CN2C(=O)c3ccccc3S(=O)(=O)c3ccc(C(=O)OCC4CCCO4)cc32)cc1 (stereo unspecified) -16.5%
Cn1cc(C(=O)O)c(=O)c2cc(S(=O)(=O)N3CCCCC3)ccc21 -1.49%
CN(C)C(=O)c1ccc2c(c1)N(CC(=O)NCc1ccc(F)cc1)C(=O)C1CCCCN21 (stereo unspecified) -0.522%
Cn1c(SCC(=O)Nc2ccc(F)cc2)nc2c([nH]c3ccccc32)c1=O 19%
COc1cc(OC)cc(-c2nnc(SCC(=O)N3CCC(C)CC3)o2)c1 7.65%
CC(=O)c1ccc(NC(=O)Cn2c(-n3nc(C)cc3C)nc(C)cc2=O)cc1 0.868%
CC(C)(C)c1ccc(OCC(=O)N(Cc2ccco2)Cc2ccccc2F)cc1 -8%
COc1ccc(OC)c(C2C(C(N)=O)=C(C)Nc3nc(-c4cccc(Cl)c4)nn32)c1 (stereo unspecified) -7.96%
Cc1cccn2c(=O)c3cc(C(=O)NCCc4ccc(S(N)(=O)=O)cc4)n(C)c3nc12 -6.87%
CCOc1ccccc1Nc1sc(C(=O)c2ccc(Cl)cc2)c(N)c1C#N 12.7%
O=C(c1ccc(CSc2nc3ccncc3n2Cc2ccccc2F)cc1)N1CCCCC1 -2.1%
Cc1c(CCC(=O)NCCc2ccccc2F)c(=O)oc2cc(O)ccc12 -4.05%
CCc1ccc2c(c1)c(=O)c(C(=O)c1ccc(C)cc1)cn2CC(=O)Nc1ccc2c(c1)OCCO2 -19.4%
CC(C)c1ccc(NC(=O)CNC(=O)Cn2ccc3ccccc3c2=O)cc1 -4.92%
CN(C)c1ccc(/C=C(\C#N)c2nc3ccccc3c(=O)[nH]2)cc1 -9.28%
O=C(NCCc1ccccc1)c1cc(-c2ccccc2)nc2n[nH]c(-c3ccccc3)c12 -21.2%
O=C(NCc1ccc(F)cc1)c1cccc(N2CCCS2(=O)=O)c1 5.92%
Cc1ccc(-c2cc(C(=O)NCCc3ccccc3)c3ccccc3n2)cc1C 9.83%
Cc1ccccc1NC(=O)Cn1c(=O)n(Cc2ccco2)c(=O)c2cccnc21 -4.25%

From PubChem BioAssay AID1963576 (National Center for Advancing Translational Sciences (NCATS), 2024)
